The values below come from a collection of fitness landscapes (doi:10.1126/science.1257360).

Sequences and labels used below:
B1: PhoQ; a variant is named by its letters at X, in order, P23837 (parent)
chain: MKKLLRLFFPLSLRVRFLLATAAVVLVLSLAYGMVALIGYSVSFDKTTFRLLRGESNLFYTLAKWENNKLHVELPENIDKQSPTMTLIYDENGQLLWAQRDVPWLMKMIQPDWLKSNGFHEIEADVNDTSLLLSGDHSIQQQLQEVREDDDDAEMTHSVAVNVYPATSRMPKLTIVVVDTIPVELKSSYMVWSWFIYVLSANLLLVIPLLWVAAWWSLRPIEALAKEVRELEEHNRELLNPATTRELTSLVRNLNRLLKSERERYDKYRTTLTDLTHSLKTPLXXLQXXLRSLRSEKMSVSDAEPVMLEQISRISQQIGYYLHRASMRGGTLLSRELHPVAPLLDNLTSALNKVYQRKGVNISLDISPEISFVGEQNDFVEVMGNVLDNACKYCLEFVEISARQTDEHLYIVVEDDGPGIPLSKREVIFDRGQRVDTLRPGQGVGLAVAREITEQYEGKIVAGESMLGGARMEVIFGRQHSAPKDE

Some of the results follow. Some results are limits rather than exact numbers.

In this assay the parent is B1. The assay is described as follows: enrichment ratio after two sorts for PhoP signalling (ratio (wild type AVST 3.29)); higher = more functional. The following applies: with PhoP (E. coli).
On to FHKF, for which the enrichment ratio is at most 0.25.
As to DQKH, the enrichment ratio is at most 0.25.
In the case of NCMW, the enrichment ratio is at most 0.25.
On to DWVR, for which the enrichment ratio was at most 0.25.
YFNW: the enrichment ratio is at most 0.25.
Turning to YMIG, the enrichment ratio was at most 0.25.
For the variant AARN, the enrichment ratio was at most 0.25.
Turning to GFIS, the enrichment ratio is at most 0.25.
For LSVS the value was at most 0.25.
With MLVK, the enrichment ratio is at most 0.25.
Regarding VIPP, the enrichment ratio is at most 0.25.
Turning to EATI, the enrichment ratio is at most 0.25.
Next, DAAA: at most 0.25; YNSP: at most 0.25; SHDM: at most 0.25.
For TWRF the value was at most 0.25; for SAIH, 2.91.
For the variant QPES, the enrichment ratio is at most 0.25.
KCSS: the enrichment ratio was at most 0.25.
In the case of NYRE, the enrichment ratio is at most 0.25.
For ETMA, the enrichment ratio was at most 0.25.
As for RGNG, the enrichment ratio was at most 0.25.
As for MSHY, the enrichment ratio stood at 6.3.
PIGA: the enrichment ratio was at most 0.25.
Turning to VFPR, the enrichment ratio was at most 0.25.
For GTRP, the enrichment ratio was at most 0.25.
QDDI: the enrichment ratio is at most 0.25.
Next, FYVH: at most 0.25; TECH: 27.7.
On to NRHN, for which the enrichment ratio was at most 0.25.
For GGIG the value was at most 0.25.
For VKAL the value was at most 0.25; for GKGR, at most 0.25; for NDPT, at most 0.25.
KIMT: the enrichment ratio is at most 0.25.
For NCRS the value was at most 0.25; for PEYF, at most 0.25; for LSFW, at most 0.25.
On to EIQF, for which the enrichment ratio was at most 0.25.
Take DLPE: the enrichment ratio is at most 0.25.
Take CFLN: the enrichment ratio is at most 0.25.
As for QYIY, the enrichment ratio was at most 0.25.
Turning to RYTW, the enrichment ratio was at most 0.25.
For GGMI, the enrichment ratio came out at 12.3.
Next, DLEV: at most 0.25; LPIL: at most 0.25.
In the case of ITSQ, the enrichment ratio is at most 0.25.
For WPSI, the enrichment ratio is at most 0.25.
For the variant PGQA, the enrichment ratio was at most 0.25.
Consider MIFR, for which the enrichment ratio was at most 0.25.
Next, IISK: at most 0.25; ESIL: at most 0.25.
Next, DLGK: at most 0.25; QETR: at most 0.25.
As to AQEN, the enrichment ratio is at most 0.25.
For AAPD the value was at most 0.25; for RFDN, at most 0.25; for HFRV, at most 0.25.
In the case of VNHK, the enrichment ratio was at most 0.25.
Regarding KGTS, the enrichment ratio is at most 0.25.
Next, IFAT: at most 0.25.
Next, YTDE: at most 0.25.
As to GYTD, the enrichment ratio is at most 0.25.
Consider QKIR, for which the enrichment ratio was at most 0.25.
In the case of VWEL, the enrichment ratio was at most 0.25.
As to RTWV, the enrichment ratio was at most 0.25.
As to AMWL, the enrichment ratio is at most 0.25.
For WPFT the value was at most 0.25; for TCSR, 5.34; for SPYP, at most 0.25.
For YVYC, the enrichment ratio was at most 0.25.
As for QSMS, the enrichment ratio was at most 0.25.
Turning to RCVE, the enrichment ratio was at most 0.25.
For VGAQ the value was at most 0.25; for MHMD, at most 0.25; for TNET, 4.23.
For NRRR the value was at most 0.25; for HRQS, at most 0.25.
Next, TMQK: at most 0.25; QMQL: at most 0.25.
Take VRSE: the enrichment ratio was at most 0.25.
For the variant YHDS, the enrichment ratio was at most 0.25.
In the case of FETK, the enrichment ratio was at most 0.25.
For ALYH the value was at most 0.25; for DKHS, at most 0.25.
For LDFF, the enrichment ratio is at most 0.25.
For PCDY the value was at most 0.25; for PWTH, at most 0.25.
On to YREW, for which the enrichment ratio was at most 0.25.
Next, IILY: at most 0.25; DVMH: at most 0.25; ILLY: at most 0.25.
For IRVA the value was at most 0.25.
For MPES the value was at most 0.25; for QLCH, at most 0.25; for KTWN, at most 0.25.
PAHF: the enrichment ratio was at most 0.25.
As for ENWH, the enrichment ratio was at most 0.25.
On to ETFH, for which the enrichment ratio was at most 0.25.
On to RAAK, for which the enrichment ratio was at most 0.25.
For SIPM, the enrichment ratio turned out to be 19.8.
On to TEGS, for which the enrichment ratio amounted to 2.52.
As for WSML, the enrichment ratio is at most 0.25.
Next, AHVA: at most 0.25.
GDQV: the enrichment ratio was at most 0.25.
As for VFFN, the enrichment ratio was at most 0.25.
Next, SMQW: at most 0.25.
Next, KFIF: at most 0.25; SWQT: at most 0.25; AWER: at most 0.25.
Regarding WKCL, the enrichment ratio was at most 0.25.
Take QWML: the enrichment ratio was at most 0.25.
Take AHRR: the enrichment ratio was at most 0.25.
For DVFV the value was at most 0.25.
On to AGGL, for which the enrichment ratio was 2.95.
For DPDD, the enrichment ratio is at most 0.25.
As to IGSG, the enrichment ratio was at most 0.25.
On to KSMP, for which the enrichment ratio is at most 0.25.
Regarding EPLE, the enrichment ratio was at most 0.25.
As for YWFM, the enrichment ratio is at most 0.25.
In the case of EMIG, the enrichment ratio was at most 0.25.
DLSQ: the enrichment ratio is at most 0.25.
Regarding MFFV, the enrichment ratio is at most 0.25.
Turning to SICG, the enrichment ratio was 22.
For the variant HHNV, the enrichment ratio is at most 0.25.
As to TPHG, the enrichment ratio is at most 0.25.
Turning to HQCC, the enrichment ratio was at most 0.25.
For HFQW, the enrichment ratio was at most 0.25.
Turning to NSFC, the enrichment ratio is at most 0.25.
As to YTFA, the enrichment ratio is at most 0.25.
With VHHK, the enrichment ratio is at most 0.25.
Next, SQGY: 0.654; AVNV: at most 0.25.
As to TDKW, the enrichment ratio is at most 0.25.
Take DNVR: the enrichment ratio is at most 0.25.
With CCSI, the enrichment ratio is at most 0.25.
With VDWE, the enrichment ratio was at most 0.25.
For the variant HQVK, the enrichment ratio was at most 0.25.
For MSKC the value was at most 0.25; for MFYQ, at most 0.25; for PVEH, at most 0.25.
With MHAV, the enrichment ratio was 4.72.
Next, FMGH: at most 0.25; MQAD: at most 0.25.
Consider YNGW, for which the enrichment ratio was at most 0.25.
For the variant STIC, the enrichment ratio amounted to 13.
RECD: the enrichment ratio is at most 0.25.
Turning to KNCT, the enrichment ratio was at most 0.25.
In the case of RHQL, the enrichment ratio was at most 0.25.
For ICVH the value was at most 0.25.
On to EISS, for which the enrichment ratio was at most 0.25.
On to IVPP, for which the enrichment ratio is at most 0.25.
For MKKF the value was at most 0.25.
